Results reported in publication PMC12040169 (PLOS Biology, 2025).
Some of the results follow.

Test system: T1, C. trachomatis L2/434/Bu expressing GFP (CTL2-GFP)
T1 construct: L2/434/Bu GFP intracellular growth in HeLa cells
Design: species or system HeLa; C. trachomatis total inclusion area by high-content imaging, normalised to DMSO
Conditions: total inclusion area; 28.5 h, 10 µM; inhibitor
In short: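 Following bulk GFP and resorufin fluorescence reads, infected cells were fixed, Hoechst-stained and imaged on a high-content platform. Inclusion total area and number per well served as growth proxies; nuclei counts indicated host viability. MICs were derived as for the fluorescence assay.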

Structure (SMILES)	% of control remaining
CC(C)(C)c1csc(NC(=O)C2CCCCC2)n1 [CBK058720]	12.7219
O=C(Nc1ccc(F)cc1)OCC1COc2ccccc2C1 (stereo not shown) [CBK017146]	76.2218
CS(=O)(=O)N1CC2(CCN(Cc3ccc([N+](=O)[O-])cc3)CC2)c2ccccc21 [CBK084010]	66.7032
CC(C)NC(=O)CC[C@@H]1CNC(=O)[C@@H]2C[C@H](NC(=O)c3ccccc3)CN12 [CBK289002]	94.8913
Nc1c(C(=O)NCc2ccco2)c2nc3ccccc3nc2n1C1CCCC1 [CBK269323]	54.0697
c1csc(Sc2nccnc2N2CCCC2)n1 [CBK093805]	114.89
CN(C)CCNC(=O)c1cccc(-c2cncc(NCc3ccc4c(c3)OCO4)n2)c1 [CBK065361]	102.72
Cc1ccc(CNC(=O)CN(c2cccc(C(F)(F)F)c2)S(=O)(=O)c2ccc(C)cc2)cc1 [CBK263997]	108.634
CN(Cc1ccccc1)C(=O)c1cc(=O)[nH]c2ccccc12 [CBK287971]	63.571
O=C(c1ccncc1)N1Cc2ccccc2C1 [CBK200316]	125.468
OC(CNCc1ccc2c(c1)OCO2)CSc1ccccc1 (stereo not shown) [CBK074684]	63.9701
CC(=O)Nc1ccc(NC(=O)CSC2=C(C#N)C(c3ccco3)C3=C(CCCC3=O)N2)cc1 (stereo not shown) [CBK264462]	110.661
O=C(O)CNS(=O)(=O)c1cccc2nsnc12 [CBK261136]	102.918
O=C(O)COc1ccc(/C=C/c2nc3n(n2)C=COc2ccccc2-3)cc1 [CBK286650]	71.5967
CCc1cc(CNC(=O)C(c2ccc(Cl)cc2)N(C)C)on1 (stereo not shown) [CBK281670]	94.3351
O=C(O)CSc1nnc2ccc(C(F)(F)F)cn12 [CBK018930]	82.6747
COc1ccccc1-c1nccnc1N1CCN(c2ccncc2)CC1 [CBK037081]	105.366
CC1=NN(C(=O)NS(=O)(=O)c2ccccc2Cl)C(C)(C)C1 [CBK018947]	66.9239
O=C(O)C1C2C=CC(O2)C1C(=O)NCCCc1ccccc1 (stereo not shown) [CBK286982]	82.0679
O=c1[nH]nc(SCc2csc(COc3ccc(Cl)cc3)n2)n1C1CC1 [CBK295146]	19.6232
CN1CCC(N2CCN(C(=O)c3ccc4c(c3)no[n+]4[O-])CC2)CC1 [CBK149095]	128.433
C=C(C)Cn1c(SC(C)C)nnc1-c1ccccc1OC(F)(F)F [CBK200081]	117.97
CN1C(=O)C2(CC(=O)N(CCC3CCCCC3)C2=O)c2ccccc21 (stereo not shown) [CBK075461]	96.7743
O=C(CN1CCCN(c2ncc(C(F)(F)F)cc2Cl)CC1)Nc1c(F)cccc1F [CBK074636]	95.8408
CC(c1ccc(F)c(F)c1)N(C)C(=O)Cn1cnc2c(c1=O)CCC2 (stereo not shown) [CBK306291]	68.4825
Cc1ccc2nc3c(cc(C(=O)NC4CCCC4)c(=N)n3Cc3ccco3)c(=O)n2c1 [CBK265242]	98.4391
Fc1ccc(Sc2cccc(C(F)(F)F)n2)cc1 [CBK115240]	64.5336

Structure (SMILES)	% of control remaining
Cc1cc(C)nc(Nc2ccc(C3CCCN(S(=O)(=O)c4ccc(F)cc4)C3)nc2)n1 (stereo not shown) [CBK285987]	74.5777
CC(C)(C)C(=O)N1CCC2(CC1)Nc1cccnc1-n1cccc12 [CBK284507]	92.3789
COc1ccc(-c2cc(C(=O)NCCc3ccncc3)cnc2-c2ccc(F)cc2)cc1 [CBK037434]	108.485
COC(=O)C1CCCCN1S(=O)(=O)c1cccs1 (stereo not shown) [CBK051135]	60.1383
c1ccc(CCNc2nccnc2-c2cccs2)nc1 [CBK036776]	115.029
CN(C)c1ccc(C(=O)N2CC(=O)Nc3ccccc32)cc1 [CBK017839]	90.3739
NNC(=O)CSc1nnc(-c2ccc(Cl)cc2)n1-c1ccccc1 [CBK263010]	114.291
Cc1ccc2c(CC(=O)NCCn3cncn3)coc2c1 [CBK283240]	88.9376
O=C(CCS(=O)(=O)c1ccccc1)Nc1cccnc1N1CCNCC1 [CBK028262T]	85.6548
CCOC(=O)C1CCN(S(=O)(=O)c2cccc3cccnc23)CC1 [CBK051242]	92.4422
CC(=O)N1C[C@H]2CCCN(S(=O)(=O)c3ccc4c(c3)CCC4)[C@H]2C1 [CBK282254]	122.054
COc1ccc(C(=O)N2CCN(c3cnn(C)c(=O)c3Cl)CC2)cc1 [CBK305720]	106.587
COc1cc(OC)cc(C(=O)N2CCC3(CC2)NC(=O)c2ccc(OC)cc2O3)c1 [CBK166328]	79.6367
Cc1nc(C(F)(F)F)ccc1C(=O)N1CCCC1c1ccc[nH]1 (stereo not shown) [CBK306328]	53.2541
O=C(O)c1cc(NC(=O)c2ccc(NC(=O)c3ccco3)cc2)cc(C(=O)O)c1 [CBK265149]	68.9237
COc1cc(-c2nc3ncccc3cc2NS(C)(=O)=O)cc(OC)c1OC [CBK085697]	90.2403
CC(C)Nc1nc2ccccc2nc1OCc1ccc(C2CC2C(=O)N(C)C)cc1 (stereo not shown) [CBK166091]	91.7891
CN1CCC(N2CCN(C(=O)c3ccccc3Nc3cccc(C(F)(F)F)c3)CC2)CC1 [CBK149097]	105.98
CC(NCC(O)COCc1ccc(Cl)cc1)c1ccccc1 (stereo not shown) [CBK027972C]	98.6361
CCC(=O)Oc1ccc(C(=O)N2CCN(c3ccccc3F)CC2)cc1 [CBK307538]	67.3276
CN(C)CCNC(=O)NC(c1ccccc1)c1ccccc1 [CBK263505C]	99.5471
COCOc1ccc(-c2ncc(OCc3ccc4c(c3)OCO4)nc2N)cc1 [CBK145101]	89.9792
N#CCCCN1CCC(Oc2cncc(OCc3cccnc3)n2)C1 (stereo not shown) [CBK084466]	94.9877
Nc1cc(S(=O)(=O)Nc2ccc(C(F)(F)F)cc2)ccc1N1CCCNCC1 [CBK001518C]	79.3373
CCN(Cc1ccccc1)c1ccc(C2NC(=O)NC(O)(C(F)(F)F)C2C(=O)c2cccnc2)cc1 (stereo not shown) [CBK264999]	111.897
Cc1nn(CC(=O)N2C(C)CCCC2C)c(=O)c2cc3occc3n12 (stereo not shown) [CBK283555]	97.8138
CCCc1nnc(C(=O)NC(=O)NCCCN(C)C)s1 [CBK018853]	5.4365

Structure (SMILES)	% of control remaining
COc1cccc(NC(=O)c2ccncc2Cl)c1 [CBK174695]	63.6094
O=C(NC1CCCCC1)O[C@@H]1CO[C@H]2[C@@H]1OC[C@@H]2NS(=O)(=O)Cc1ccccc1 [CBK289467]	91.3987
O=C1CC[C@@H](NCc2ccccn2)[C@H](c2cc(F)cc(F)c2)N1 [CBK282911]	80.2044
Cc1cc(/C=C(/C#N)c2cccc(F)c2)c(C)n1-c1ccc(S(N)(=O)=O)cc1 [CBK268268]	90.4608
COc1ccc2nc(-n3nc(C(=O)NCc4ccncc4)c4ccccc43)sc2c1 [CBK048521]	101.772
O=C(Nc1nnc(C2=COCCO2)o1)c1ccco1 [CBK287412]	99.9074
O=C(O)c1cccc(NC(=O)c2ccc(COc3ccc(-c4ccccc4)cc3)o2)c1 [CBK299778]	102.618
CCOC(=O)COc1c(Cl)cc(/C=C/c2[nH]c(=O)[nH]c(=O)c2[N+](=O)[O-])cc1Cl [CBK267003]	100.974
COc1ccc(C(C)C)cc1-c1cn2ccnc2c(NC2CCOCC2)n1 [CBK066320]	95.328
CC(=O)N[C@H]1CO[C@H]2[C@@H]1OC[C@@H]2Nc1nccc(-c2cccc(F)c2)n1 [CBK289534]	107.851
O=C(c1ccoc1)N1CCC2(CCCN(Cc3ccc4ccccc4c3)C2)C1 (stereo not shown) [CBK132811]	61.4235
CC1(OCCCN2CCCCC2)SC(NC2CC3CCC2C3)=NC1=O (stereo not shown) [CBK115611]	104.447
COc1cccc(Cc2c(C)nc3c(C(=O)NCC4COc5ccccc5O4)cnn3c2C)c1 (stereo not shown) [CBK162064]	107.523
CC1=NN(c2ccc(S(N)(=O)=O)cc2)C(=O)/C1=C\c1ccc(-c2cccc(C(=O)O)c2)o1 [CBK263483]	99.6898
O=C(O)C(CCCCN1C(=O)c2ccccc2C1=O)N1C(=O)c2ccccc2C1=O (stereo not shown) [CBK265250]	112.219
O=C(c1ccccc1C(F)(F)F)N1CCC(n2c(=O)[nH]c3ccccc32)CC1 [CBK149706]	69.0737
CC(=O)Nc1ccc(CNc2ccc(C#N)cn2)cc1 [CBK297790]	106.071
CC(C)C(=O)Nc1ccc2c(-c3ccc4c(c3)OCCCO4)ccnc2n1 [CBK073675]	102.033
COc1ccc(S(=O)(=O)N(c2ccccc2)C2CCNCC2)cc1OC [CBK165076T]	92.541
OC(Cn1ccnc1)C1CCCCC1 (stereo not shown) [CBK010092]	72.5085
Cc1c(Cl)ccc2c(C(=O)Nc3ccc(S(=O)(=O)N4CCOCC4)cc3)cc(-c3cccnc3)nc12 [CBK267718]	104.373
O=C1NCCCCC1N1CCS(=O)(=O)CC1 (stereo not shown) [CBK017083]	61.306
COc1ncc(C(=O)NCc2cccnc2N(C)C2CCCCC2)cn1 [CBK306870]	53.4908
CN(C)S(=O)(=O)Nc1cccc2cc[nH]c12 [CBK159505]	86.329
COC(=O)C1=C(Cn2ccc(C(F)(F)F)n2)NC(=O)NC1c1cc(C)ccc1C (stereo not shown) [CBK268792]	60.9605
